Data taken from PubChem BioAssay AID1768 (National Center for Advancing Translational Sciences (NCATS), 2009).
The whole screen tested about 270,000 compounds, of which about 620 (0.23%) were called active. This list was built around the results that the source calls inconclusive (neither active nor inactive); the mix of calls is not that of the screen. Calls come from the whole dose curve; as a rule, active = well fitted inhibition curve with a large enough effect in the polarisation, with a control signal flat (not every such curve was filed as active); inconclusive = small, poorly fitted or top-dose-only effect, or effect the other way, or a change in a side signal; inactive = no such curve, though single readings can be large or run the other way; the % refers to the polarisation. Potencies beside an inconclusive call are fits to weak or partial responses and may not hold up. “Side channel” marks fits to a control or component signal instead of the main read-out.

Biological target: Menin (Homo sapiens) (UniProt O00255)
UniProt O00255, sequence (O00255 whole entry, looked up): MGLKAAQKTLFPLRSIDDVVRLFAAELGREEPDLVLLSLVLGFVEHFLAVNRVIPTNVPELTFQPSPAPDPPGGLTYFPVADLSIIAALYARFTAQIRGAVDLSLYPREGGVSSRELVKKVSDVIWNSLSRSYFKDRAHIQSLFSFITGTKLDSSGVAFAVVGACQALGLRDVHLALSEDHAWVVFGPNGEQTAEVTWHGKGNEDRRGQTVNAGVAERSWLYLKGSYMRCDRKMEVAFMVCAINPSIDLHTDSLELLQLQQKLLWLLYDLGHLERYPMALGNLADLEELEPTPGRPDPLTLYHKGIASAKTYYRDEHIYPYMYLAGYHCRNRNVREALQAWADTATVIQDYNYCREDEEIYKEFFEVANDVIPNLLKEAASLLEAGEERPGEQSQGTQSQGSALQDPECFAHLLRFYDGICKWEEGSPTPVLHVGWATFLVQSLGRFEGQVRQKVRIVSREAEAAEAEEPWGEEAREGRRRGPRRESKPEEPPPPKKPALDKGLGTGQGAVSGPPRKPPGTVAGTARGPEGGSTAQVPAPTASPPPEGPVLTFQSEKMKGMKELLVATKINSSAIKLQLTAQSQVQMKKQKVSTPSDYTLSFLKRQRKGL
Assay: qHTS Assay for Inhibitors Targeting the Menin-MLL Interaction in MLL Related Leukemias: Competition With Texas Red Labeled MLL-derived Mutant Peptide; for FP activity change, negative = inhibition: % of control where 0% means no effect
Conditions: fluorescence polarization; FP activity change, negative = inhibition: at 61.6 µM (top of the series)
Potency is the fitted concentration of half-maximal effect; tags give direction and shape of the fitted curve or compound fluorescence and quenching.

Structure (SMILES) | Potency | FP activity change, negative = inhibition
Clc1cc(NC2CCCCC2)ncn1 | inconclusive: 1.78 µM [inhibitor, partial curve, poor fit] | 
CCSc1ncc(/C=N/Nc2ccc([N+](=O)[O-])cc2)n1C | inconclusive: 10 µM [quencher, side channel, partial curve] | 
Cc1ccc(-n2nc3c(c2NC(=O)c2ccco2)CS(=O)C3)cc1 (configuration not stated) | inconclusive: 1 µM [quencher, partial curve] | 
c1cncc(-c2nnc3n2N=C(c2cccs2)CS3)c1 | inconclusive: 39.8 µM [inhibitor, single point] | 
CC(=O)c1cc2c(cc1NC(=O)c1ccc(Cl)cc1)OCCO2 | inconclusive: 14.1 µM [fluorescent, side channel, partial curve] | 
CCOC(=O)C1=C(C)OC(N)=C(C#N)C1c1cc2cc(C)ccc2nc1N1CCCCC1 (configuration not stated) |  | inactive: -11.4%
O=C(Nc1cc(S(=O)(=O)N2CCCCC2)ccc1O)c1ccccc1NS(=O)(=O)c1ccc(F)c(F)c1 | inconclusive: 17.8 µM [quencher, side channel, partial curve] | 
COc1cc(/C=C2/SC(=S)N(CC(=O)O)C2=O)ccc1OCC(=O)Nc1ccc(C)c(C)c1 | inconclusive: 10 µM [quencher, side channel, partial curve] | 
CC(C)(C)c1ccc(/C=C2\SC(=O)N=C2N)cc1 | inconclusive: 12.6 µM [fluorescent, side channel, partial curve] | 
N#Cc1ccccc1-c1ccc2ncnc(N3CCNCC3)c2c1 | inconclusive: 31.6 µM [inhibitor, single point] | 
O=c1c2c(-c3ccccc3)csc2ncn1/N=C/c1c2ccccc2cc2ccccc12 | inconclusive: 11.2 µM [inhibitor, partial curve] | 
Cn1nc(C(=O)NCCOc2ccccc2)c2ccccc2c1=O |  | inactive: 9.69%
COc1ccc(Br)cc1CN(C)CC(=O)NCCc1ccccc1 | inconclusive: 7.08 µM [fluorescent, side channel, full curve] | 
NNC(=O)c1sc(-c2ccc(Cl)cc2)cc1N | inconclusive: 14.1 µM [quencher, side channel, partial curve] | 
Nc1nc2ccccc2cc1-c1cccs1 |  | inactive: -2.85%
COc1cc(/C=N/Nc2nc(C)nc3c2cnn3-c2ccccc2)ccc1O | inconclusive: 10 µM [quencher, side channel, partial curve] | 
Cc1c(Br)c([N+](=O)[O-])nn1C(C)C(=O)Nc1ccc2c(c1)OCO2 (configuration not stated) | inconclusive: 14.1 µM [quencher, side channel, partial curve] | 
Cc1ccc(CN(Cc2ccccn2)C(=O)Nc2ccc(C)c(C)c2)cc1 | inconclusive: 10 µM [fluorescent, side channel, partial curve] | 
O=C(C1=C[C@H](c2coc3ccccc3c2=O)C[C@H](OCCCCO)O1)N1CCN(Cc2ccc3c(c2)OCO3)CC1 | inconclusive: 2 µM [fluorescent, side channel, partial curve] | 

Structure (SMILES) | Potency | FP activity change, negative = inhibition
COC(=O)c1c(NC(=O)Cc2cccs2)sc2c1CCCC2 | inconclusive: 31.6 µM [quencher, side channel, single point] | 
COc1ccc(-c2noc(CN(C(=O)c3cccs3)C(C)C)n2)cc1 | inconclusive: 3.16 µM [inhibitor, partial curve] | 
COc1ccc(/C=C/C(=O)NCc2cccnc2)cc1 |  | inactive: -4.24%
Cc1cc(C)nc(Nc2ccc(N3CCCC3)cc2)n1 | inconclusive: 39.8 µM [inhibitor, single point] | 
Cc1[nH]nc(-c2ccc(OCc3cnn(-c4ccccc4)c3)cc2O)c1Oc1ccccc1F | inconclusive: 3.16 µM [quencher, side channel, full curve] | 
CNC(=O)c1c(NC(=O)c2ccc(N3C(=O)CCC3=O)cc2)sc2c1CCCC2 | inconclusive: 28.2 µM [quencher, side channel, single point] | 
O=C(c1ccccc1)C1CN(Cc2ccccc2)CCC1(O)c1ccccc1 (configuration not stated) | inconclusive: 39.8 µM [inhibitor, single point] | 
c1ccc(C2=Nc3ccccc3NC(c3ccccc3)C2)cc1 (configuration not stated) | inconclusive: 0.631 µM [inhibitor, full curve, poor fit] | 
Cn1c(=O)cc(OCCCC(=O)Nc2ccc3c(c2)OCCO3)c2ccccc21 | inconclusive: 39.8 µM [fluorescent, side channel, single point] | 
CN(Cc1ccccc1)C(=O)c1[nH]cnc1C(=O)N[C@@H](CCCCNC(=O)OC(C)(C)C)C(=O)OC(C)(C)C | inconclusive: 25.1 µM [fluorescent, side channel, partial curve] | 
CCCn1c(=N)n(CC(O)COc2cccc(C)c2)c2ccccc21 (configuration not stated) | inconclusive: 15.8 µM [inhibitor, partial curve] | 
O=C(Cc1cccs1)Nc1nc(-c2ccc(F)cc2F)cs1 | inconclusive: 25.1 µM [quencher, side channel, partial curve] | 
CCOc1ccc(N2C(=O)C3C(c4ccccc4)=NN(c4ccccc4)C3C2=O)cc1 (configuration not stated) | inconclusive: 28.2 µM [inhibitor, partial curve] | 
C=CCn1c(COc2ccc(CC)cc2)nnc1SC/C(O)=C(\C#N)c1nc2ccccc2[nH]1 | inconclusive: 39.8 µM [quencher, side channel, single point] | 
N=c1c(C(=O)NC2CCCCC2)cc2c(=O)n3ccccc3nc2n1Cc1cccnc1 | inconclusive: 20 µM [inhibitor, single point] | 
COc1ccc(NC(=O)c2cccc(S(=O)(=O)Nc3ccc(Br)cc3)c2)cn1 | inconclusive: 22.4 µM [quencher, side channel, partial curve] | 
O=C(Nc1cccc(-c2nc3ncccc3o2)c1)c1cc2ccccc2o1 | inconclusive: 17.8 µM [quencher, side channel, single point] | 
CN1/C(=C/C2CC(=O)N(c3ccc([N+](=O)[O-])cc3)C2=O)C(C)(C)c2ccccc21 (configuration not stated) | inconclusive: 31.6 µM [quencher, side channel, single point] | 
